# Measured values taken from PubChem BioAssay AID900 (National Center for Advancing Translational Sciences (NCATS), 2007).
# Among all 75,000 compounds or so, about 20 (0.03%) were called active. The shares of active, inactive and inconclusive entries below differ from those in the screen. Calls follow the shape of the dose curve; as a rule, active = well fitted inhibition curve with a large enough effect; inconclusive = small, poorly fitted or top-dose-only effect; inactive = flat fitted curve, though single readings scatter. No potency is given beside an inconclusive call; the fits are too rough.
# Molecular target: Caspase-1 (Homo sapiens) (UniProt P29466)
# Assay: qHTS Assay for Allosteric/Competitive Inhibitors of Caspase-1;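 as to activity change, negative = inhibition: plate controls were vehicle for no effect and no substrate for full effect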
# Details: Caspase-1 enzyme, Ac-WEHD-AFC fluorogenic rate; activity change, negative = inhibition: at 57.5 µM (top of the series) unless noted
# Potency is read from the fitted curve at half-maximal effect; tags tell the direction and shape of the fitted curve or compound fluorescence and quenching.
Compound,Potency,"activity change, negative = inhibition"
COC(=O)[C@H]1[C@H]2C[C@@H]3c4[nH]c5cc(OC)ccc5c4CCN3C[C@H]2C[C@@H](OC(=O)c2cc(OC)c(OC)c(OC)c2)[C@@H]1OC,"inconclusive [inhibitor, full curve]",–
COc1ccc(/C=C/c2cc(OC)cc(=O)o2)cc1,"inconclusive [inhibitor, partial curve]",–
Cc1ccc(C2C(C#N)=C(N)Oc3c2sc2ccccc32)o1 (stereo unspecified),"inconclusive [inhibitor, partial curve]",–
c1ccc2c(c1)CCCN2Cc1nnnn1C1CCCC1,"inconclusive [inhibitor, partial curve]",–
Cc1cc(N2CCN(c3ccccn3)CC2)n2c(nc3ccccc32)c1C#N,inactive,–
CCOC(=O)Cc1csc(NC(=O)c2csc3c2CCCC3)n1,inactive,–
Cc1[nH]c2ccccc2c1Cc1nnc(SCC(N)=O)o1,"inconclusive [inhibitor, single point]",–
CCN(CC)S(=O)(=O)c1ccc(/C(O)=C(\C#N)c2nc3ccccc3n2C)cc1,"inconclusive [inhibitor, single point]",–
N=c1sc2ccccc2n1-c1ccccc1,–,inconclusive: -18% [inhibitor]
O=C1CCCC(O)=C1C(C#Cc1ccccc1)C1=C(O)CCCC1=O,inactive,–
c1ccc(CSc2nnc(-c3ccco3)c(-c3ccco3)n2)cc1,–,inconclusive: -15.9% [inhibitor]
CCC(C)OC(=O)C1=C(C)NC2=C(C(=O)C(C(=O)OC)C(C)C2)C1c1ccc(N(C)C)cc1 (stereo unspecified),"inconclusive [inhibitor, partial curve]",–
Cc1cccn2c(=O)c3cc(C#N)c(=NC(=O)c4ccc5c(c4)OCO5)n(CC(C)C)c3nc12,"inconclusive [inhibitor, partial curve]",–
NS(=O)(=O)c1ccc(C(=O)O)cc1,–,inactive: -1.09% [at 11.5 µM]
Cc1sc2ncnc(N3CCCCC3C)c2c1C (stereo unspecified),inactive,–
CCCCn1c(NCCC)nc2c1c(=O)[nH]c(=O)n2C,inactive,–
COc1ccc(-c2ccc(CCC(=O)O)n2C(C)C)cc1,"inconclusive [inhibitor, partial curve]",–
CCCc1ncc(C[n+]2ccccc2C)c(N)n1,"inconclusive [inhibitor, single point]",–
CCCC[C@@H]1C[C@H]1C(NC(=O)c1ccco1)c1ccccc1C(F)(F)F (stereo partly specified),inactive,–
N#Cc1cccc(NC(=O)N2CC[C@@]3(CCCNC3)C2)c1,inactive,–
CCC1C(C#N)=C(SC)NC2=C1C(=O)CC(C)(C)C2 (stereo unspecified),–,inconclusive: -17.5% [inhibitor]
COc1ccc(OC)c(NC(=O)c2cc(S(=O)(=O)NCc3ccco3)ccc2F)c1,–,inconclusive: -16.1% [inhibitor]
Cc1ccc(-c2noc(CN(C(=O)CCCN3C(=O)c4ccccc4C3=O)C(C)C)n2)cc1,inactive,–
COc1ccc2nc(Nc3nc(C)c(C(C)=O)s3)sc2c1,"inconclusive [inhibitor, partial curve]",–

Compound,Potency,"activity change, negative = inhibition"
Cn1c(SCC(=O)N2CCc3ccccc32)nnc1C1CC1,–,inconclusive: -16.9% [inhibitor]
CCN1C(=O)/C(=C2/Sc3ccccc3N2CCCS(=O)(=O)O)SC1=S,"inconclusive [inhibitor, partial curve]",–
Cc1nn2c(c1-c1ccccc1)N=C(c1ccco1)CC2c1ccccc1 (stereo unspecified),–,inconclusive: -16.4% [inhibitor]
c1csc(C2C3=C(Nc4ncnn42)c2ccccc2OC3)c1 (stereo unspecified),"inconclusive [inhibitor, partial curve]",–
CCOC(=O)N1CC=C2C(C#N)=C(N)C(C#N)(C#N)[C@H](c3ccsc3)[C@H]2C1,"inconclusive [inhibitor, partial curve]",–
COc1ccccc1N(C(=O)c1snc(C(N)=O)c1N)C(C(=O)NC1CCCC1)c1ccco1 (stereo unspecified),"inconclusive [inhibitor, single point]",–
COc1cc(CO)cc(-c2cc(CO)cc(OC)c2OC)c1OC,inactive,–
C[C@@H]1C(=O)O[C@H]2[C@@H](O)[C@@]34[C@H]5CC(C(C)(C)C)[C@]36[C@@H](OC(=O)[C@@H]6O)O[C@@]4(C(=O)O5)[C@@]12O (stereo partly specified),inactive,–
C/C(=N/O)[C@@H]1C[C@H](CC(=O)O)C1(C)C,–,inactive: -1.6% [at 11.5 µM]
CN1CCN(c2ncc3nc(CCc4ccccc4)c(=O)n(Cc4cccs4)c3n2)CC1,"inconclusive [inhibitor, single point]",–
O=S(=O)(c1ccc(Oc2ccc(S(=O)(=O)N3CCOCC3)cc2)cc1)N1CCOCC1,inactive,–
Cc1ccc(C2C3CSCC=C3C(C#N)=C(N)C2(C#N)C#N)cc1 (stereo unspecified),"inconclusive [inhibitor, partial curve]",–
Nc1c(S(=O)(=O)c2ccccc2)c2nc3ccccc3nc2n1/N=C/c1ccco1,"inconclusive [inhibitor, partial curve]",–
CCCC(c1nnnn1CCc1ccccc1)N1CCN(C2CCCC2)CC1 (stereo unspecified),inactive,–
CSc1sc(C)cc1C1C(C#N)=C(N)N(c2cccnc2)C2=C1C(=O)CCC2 (stereo unspecified),"inconclusive [inhibitor, partial curve]",–
CCOC(=O)N1CCC(NC(=O)Cn2ncc3ccccc32)CC1,inactive,–
CC1=CC(=C2C(=O)c3ccccc3C2=O)C=C(C)O1,"inconclusive [inhibitor, full curve]",–
CO[C@H]1COC(=O)[C@@H](OCc2ccccc2)/C=C\[C@H](C)[C@@H](OC)COC(=O)[C@H](OCc2ccccc2)/C=C\[C@@H]1C,–,inactive: -1.1% [at 11.5 µM]
COc1ccccc1CN(Cc1cc2cc(C)ccc2[nH]c1=O)Cc1nnnn1Cc1ccco1,"inconclusive [inhibitor, partial curve]",–
COC(=O)[C@@]1(Cc2ccc(OC)cc2)[C@@H]2[C@@H](CC(=O)[C@H]2CC(=O)C(=O)N2CCCC2)CN1C(=O)c1ccccc1,"inconclusive [inhibitor, single point]",–
O=C(CCN1C(=O)c2ccccc2C1=O)N1CCN(C(=O)c2ccccc2)CC1,inactive,–
COc1cc(OC)c2cc(-c3ccncc3)cnc2c1,"inconclusive [inhibitor, partial curve]",–
O=C(c1ccncc1)N1CCC2(CC1)CN(Cc1cc(C(F)(F)F)cc(C(F)(F)F)c1)C2,inactive,–
Cc1nc2cnc(N3CCN(C)CC3)nc2n(-c2ccccc2)c1=O,"inconclusive [inhibitor, partial curve]",–

Compound,Potency,"activity change, negative = inhibition"
CCOC(=O)c1c(C)oc2c1c(/C=N/c1ccccn1)c(O)c1ccccc12,"inconclusive [inhibitor, partial curve]",–
CC(C)(C)n1nnnc1C(c1cccs1)N(Cc1ccccc1)Cc1ccco1 (stereo unspecified),inactive,–
Cc1ccc(C)c2[nH]c(=O)c(CN(Cc3ccc4c(c3)OCO4)Cc3nnnn3Cc3ccco3)cc12,"inconclusive [inhibitor, single point]",–
Cc1nc(N=Nc2cc(S(=O)(=O)O)ccc2S(=O)(=O)O)c(COP(=O)(O)O)c(C=O)c1O,inactive,–
Nc1cccc(N)c1,"inconclusive [inhibitor, partial curve]",–
c1ccccc1,inactive,–
Cc1ccc(N=Cc2nc(-c3ccco3)oc2O)cc1,"inconclusive [inhibitor, partial curve]",–
Cc1ccc(C)n1-n1cnc2sc(-c3ccccc3)cc2c1=O,inactive,–
CCOc1cc(CNc2ccc3[nH]c(=O)[nH]c3c2)ccc1OCC(=O)NC(C)(C)C,–,inconclusive: -19.8% [inhibitor]
COCCn1c(=O)c(-c2cn(C)c3ccccc23)nc2cnc(N3CCNCC3)nc21,"inconclusive [inhibitor, partial curve]",–
O=C(NC1CCCCC1)N1CCc2[nH]c3ccccc3c2C1,"inconclusive [inhibitor, partial curve]",–
OC[C@@H]1O[C@@H](O)[C@H](N=Cc2ccc3c(c2)OCO3)[C@@H](O)[C@@H]1O,–,inactive: -2.68% [at 11.5 µM]
CC(C)CC(c1nnnn1CC1CCCO1)N1CCN(c2cccc(Cl)c2)CC1 (stereo unspecified),inactive,–
COCCNc1ncnc2ccc(-c3ccc(N(C)C)cc3)cc12,inactive,–
CC(=O)Nc1ccccc1C=C1c2ccccc2-c2ccccc21,–,inactive: -0.377% [at 11.5 µM]
CC(=O)Nc1ccc(S(=O)(=O)Nc2nc3ccccc3nc2Sc2nncn2C)cc1,"inconclusive [inhibitor, partial curve]",–
COc1ccc(-n2c(=O)c(-c3cc(F)cc(F)c3)nc3cnc(N(C)C)nc32)cc1,"inconclusive [fluorescent, full curve]",–
CCOC(=O)CN1CC23C=CC(O2)C(C(=O)Nc2cc(OC)ccc2OC)C3C1=O (stereo unspecified),inactive,–
C=C(C)CC1(c2ccccc2)Oc2ccccc2-c2nc3cc(Cl)c(Cl)cc3nc21 (stereo unspecified),–,inactive: -2.81% [at 11.5 µM]
COc1cc2c(C#N)c(N3CCCCC3)nc(N)c2c(N)n1,"inconclusive [inhibitor, partial curve]",–
CCN(CC)CCCC(C)NC(=O)c1ccc(Cc2nc3ccccc3[nH]2)cc1 (stereo unspecified),inactive,–
CCOc1ccc(-c2nn3c(-c4ccc(F)cc4)nnc3s2)cc1,inactive,–
Cc1cccc(S(=O)(=O)C(C#N)c2nc3ccccc3nc2N2CCOCC2)c1 (stereo unspecified),"inconclusive [inhibitor, partial curve]",–
